# PMC12136788
# Some of the results follow.
# T1: UNK ZnF1-3 (human, UniProt Q9C0B0 31-174)
# T1 sequence: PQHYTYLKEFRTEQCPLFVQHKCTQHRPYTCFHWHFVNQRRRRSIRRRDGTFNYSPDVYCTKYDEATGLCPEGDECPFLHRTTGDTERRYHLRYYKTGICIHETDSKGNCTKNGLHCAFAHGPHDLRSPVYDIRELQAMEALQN
# B1: chr22:46125322:46125323:+_ENSG00000130638_ENST00000252934|hu_hu|motif|central (ssRNA)
# RNA: GGGAGUUCUACAGUCCGACGAUCAAACACAGGGAUGUCAUCCUUGGUGAGUGGCUCAUCACUCGUUAUCUUGGCGGUCAUAAGGUCGGACAGUGUAACUCUUUCUUGAUUGUUCAGUUUGGGAAACAUGGCUUGUACCAAUUCCAACAGAGGAUUGAGCAUCA
# B2: 183502860_183506292_1210_CDS_ENSG00000116698_ENST00000515829|human|control|control (ssRNA)
# RNA: GGGAGUUCUACAGUCCGACGAUCCCAGGGCCAAAUGUACUGUCUUUCAUCCACCACUGCCUCCUGAAAGACCCUGGGUCUGAGUCUUAGCCAGUCCAUGGAGACCUUGACUGCUGGAAGAGGAUAGGCAUUGUAGGACUCCUCCAACAGAGGAUUGAGCAUCA
# B3: chr14:76904430:76904431:+_ENSMUSG00000022010_ENSMUST00000022587|mus_mus|mus_mus_mus_hu_True|58_88 (ssRNA)
# RNA: GGGAGUUCUACAGUCCGACGAUCUGCAGCCAAAAACACCCUCGUGGCGGGAGGGAGGGAACACCAGCAGCCUUGUACAAACUAGAUAAAAUCUUCUGGCUUUCCGCAGCCCAGGGAGAAACAGAAAACGGCAGCCCUAAUUUACAACAGAGGAUUGAGCAUCA
# B4: chr16:45382771:45382772:-_ENSMUSG00000022661_ENSMUST00000163230|mus_mus|mus_mus_mus_hu_True|48_78 (ssRNA)
# RNA: GGGAGUUCUACAGUCCGACGAUCCUGGGUCAUGUUAUAAGACAAAUGGACAGGGAGAGCAUGCUUUUCAAAAAAUGUGAGCUAUUGACUAAGACUAACAAUAUUUAUCUAGCUAUAAAAAUAAGUUAAAUGAAUAAGUUAAGACAACAGAGGAUUGAGCAUCA
# B5: chr1:39494447:39494448:+_ENSG00000168653_ENST00000372967|hu_mus|hu_hu_hu_mus_False|78_78 (ssRNA)
# RNA: GGGAGUUCUACAGUCCGACGAUCGCACCGAGCGGCGUUCUUAUAGGGCUGUUCUGCACUCUGGAUUAUAAAGUGCCGGUCCAGGCUGAUGCCCAGCUUUUUCUGUAUGUCAAGGAAAGGCAUGGCUCUGCAGUGCCCUUGUCACAACAGAGGAUUGAGCAUCA
# B6: chr17:64801638:64801639:+_ENSG00000154229_ENST00000413366|hu_mus|hu_hu_hu_mus_False|8_88 (ssRNA)
# RNA: GGGAGUUCUACAGUCCGACGAUCUAUAUAUAUAUAUACAUAUGUACACAUAUGUAGUAAAACCCUAGUUAAACGUGUAAAGUAGCCAUUCAUUUUUAAAAUUACAUCUACAUUAAAAAAUUAAUAUAUCUGAUACAGUGCCAGCAACAGAGGAUUGAGCAUCA
# B7: chr5:128448638:128448639:+_ENSG00000066583_ENST00000173527|hu_mus|hu_hu_hu_mus_False|18_28 (ssRNA)
# RNA: GGGAGUUCUACAGUCCGACGAUCGGCACUCGCCUUAAUUAGGUUCUGAAUUUCCUUGAACUUCGGGUGGUCUUUGUCAGCCACCAGCUGUAGGAGGACAGCCUCACUCGUGGUCACUAUGAUCCCGGUGCGGGCAAGACGCUCCAACAGAGGAUUGAGCAUCA
# B8: chr5:73612201:73612202:-_ENSMUSG00000070733_ENSMUST00000101127|mus_hu|FALSE|FALSE (ssRNA)
# RNA: GGGAGUUCUACAGUCCGACGAUCUCACUUAGAAAUGGUUGUUGAGGCACAGAGUUUGUAGAAAAGACACCAAGUUUGGAAAGGAUCCAUCUAGAAGCUUUUUUGAUCUGGAGCUUGUACUUUACAGGCACUCGAGUGGGCACACAACAGAGGAUUGAGCAUCA
# B9: chr16:23109248:23109249:+_ENSMUSG00000022884_ENSMUST00000115341|mus_hu|motif|central (ssRNA)
# RNA: GGGAGUUCUACAGUCCGACGAUCAAGUGCCAGAAUUACCUUUUGGAUCUGUUGAGCCAGUUCUCUGGUGGGGGCCAAUACGGGUGCUUGGGUCUCCUUGAACUCAAUCUCCAACUGUUGCAGGAUGGAAAUAGCAAAUGUGGCCAACAGAGGAUUGAGCAUCA
# B10: 9633971_9634091_4102_CDS_ENSMUSG00000048264_ENSMUST00000174552|mouse|control|control (ssRNA)
# RNA: GGGAGUUCUACAGUCCGACGAUCCAUCACCGAAUAGGAACAGAAGGUAUCCCGGACUUUGUAUUGACUCACAGCAAGAAGCCACAAGGCAGGAUUGGUCUCCAGCUCAGAGGGUGGGAUCAGAAUGGACUGGUGUCCUGAGUACAACAGAGGAUUGAGCAUCA
# B11: chrX:140365678:140365679:-_ENSMUSG00000031285_ENSMUST00000033642|mus_hu|FALSE|FALSE (ssRNA)
# RNA: GGGAGUUCUACAGUCCGACGAUCGUCAGAGGACACAGCGUACACAAUCCCCUUGAAGUAGCGGUCCCCAUUGCGGUAGAAACGUACCUUCUUGGCUUUCUUCUCAUUACUCAGUGCCUGCAAGGUUCUGGUUCGGUAGAAGCUCAACAGAGGAUUGAGCAUCA
# B12: 141029216_141029336_8087_CDS_ENSMUSG00000040761_ENSMUST00000078886|mouse|control|control (ssRNA)
# RNA: GGGAGUUCUACAGUCCGACGAUCUGAGCCCUUCACAGGGCCCUUUAAGGCAUUCACCGGGACCAGAGAGACAUUCACCAGACCAGUCAGGGCACUCACCAGGCCAGUCAGGGUCUGAGGAGCUGGCUUUGCCAACGUGAUCUUCAACAGAGGAUUGAGCAUCA
# B13: chr16:94664741:94664742:+_ENSMUSG00000040785_ENSMUST00000117648|mus_hu|mus_mus_mus_hu_False|28_98 (ssRNA)
# RNA: GGGAGUUCUACAGUCCGACGAUCUGGUACUGAUCUUUGCAUUGGAUAUUCAGGAGAAAGGCUGGCCAAGGGUGUAUAUAUGCUGGUGUACUGGGGCAAACCUGGUACCAUGUUAAUGUAUGCUGGCGGUGUCUGGGUGAUAUCCAACAGAGGAUUGAGCAUCA
# B14: 37564219_37564339_4418_CDS_ENSG00000125686_ENST00000300651|human|control|control (ssRNA)
# RNA: GGGAGUUCUACAGUCCGACGAUCUCCACUACUUUCCCCAGGUUUCUGCAAAGUCACUUUGGCUUUAAUGCUAGGGGAGCCUCCAUCAUGCUUACUGAUGAUAAUUUUUGCCACACCUGUGCUCCCCACAUUUUUUGACUCUGACAACAGAGGAUUGAGCAUCA
# B15: 6138544_6138664_1533_ncRNA_ENSMUSG00000034377_ENSMUST00000152672|mouse|control|control (ssRNA)
# RNA: GGGAGUUCUACAGUCCGACGAUCCGUUCUCAUUUUCAAGUUCUUAGCGGGAAACCACACCAAUCCUUUGGAGAAAGAGCUGUUAGUAAGUGAUGAUGAAGAGGCAGUUCUCUUCGCUUUUACUCAGCCUCGUUAUUCUCAGCCCAACAGAGGAUUGAGCAUCA
# B16: 111179025_111179145_4737_3pUTR_ENSMUSG00000046785_ENSMUST00000060711|mouse|control|control (ssRNA)
# RNA: GGGAGUUCUACAGUCCGACGAUCACUGUAAAGCCAUCUGCUGAAGGGAAAGUGAGAGGAAGAGCAGGUCUGGGAGAAAGAGCCAAGAUGUGAAAGAGCAAAGAGUUAGCAAUAUUAGCAACUAUGAUUUACAGGGAAAUCUCACAACAGAGGAUUGAGCAUCA
# B17: 53434051_53437351_1664_CDS_ENSMUSG00000032030_ENSMUST00000166367|mouse|control|control (ssRNA)
# RNA: GGGAGUUCUACAGUCCGACGAUCAUACCUCAUAAAAACAUCUUUGUUUUGUACAUAUUUAAGUACCAAGAGCACUUCUUUAAGCUUUGCUUCAAUCUCCUCAGAUGUUAGUUUUUUGCUUAAUGGCGUUUUCCUUAACAACAUCAACAGAGGAUUGAGCAUCA
# B18: chr19:16212804:16212805:+_ENSG00000167460_ENST00000300933|hu_mus|hu_hu_hu_mus_False|38_78 (ssRNA)
# RNA: GGGAGUUCUACAGUCCGACGAUCAACAAUUCUGGAGUGAAGGAAAGAUGUAACAUGCAAUUAAUUAAAAGCUCAGUCAGAAGGCACAUGGGCAACAAUGACUAUUUCAGCAUUCUCGCUUGGAAUGCUUAAAGACAAUCUGUUCAACAGAGGAUUGAGCAUCA
# B19: chr1:52223104:52223105:-_ENSMUSG00000026103_ENSMUST00000114513|mus_hu|FALSE|FALSE (ssRNA)
# RNA: GGGAGUUCUACAGUCCGACGAUCGUUGUCAGAAUCUCCUUGAGGUGUGUACUGGACUUGGUAUUCUUGGAGAAUUUUAAAUACAUCAUGGUGUCCAAAGUGCAGUGCUUCAUCCAUGGGAGUGUUAUUCCACCUGUCCUUGGGCAACAGAGGAUUGAGCAUCA
# B20: chr19:8913615:8913616:-_ENSMUSG00000071658_ENSMUST00000096259|mus_hu|mus_mus_mus_hu_False|8_78 (ssRNA)
# RNA: GGGAGUUCUACAGUCCGACGAUCAGGGUACCAAAACCUUCUGCCUGAAAUGGGUGCCCCACCCUGCAGGGAGUUGCAGCUGAAAGUAUCUGAUGCAGAAGCAGUGACUAUACGAAAGGAGGCCCCUGAUGCUCAGAAGGCCAGCAACAGAGGAUUGAGCAUCA
# B21: chr7:90019490:90019491:+_ENSMUSG00000057706_ENSMUST00000082237|mus_hu|motif|central (ssRNA)
# RNA: GGGAGUUCUACAGUCCGACGAUCUCCGUCACAAUUGUGUGAUUAUUAAAAUAAUACAGUGUUCUUUGCCAUAAGGCCAUACGGAAAUAAAAAGAUUUAACCCAGCUACAAAAAAGUUCACUGAACUUAAAUUAAAAUACUUGUCAACAGAGGAUUGAGCAUCA
# B22: chr8:38205342:38205343:-_ENSG00000147548_ENST00000316985|hu_hu|motif|central (ssRNA)
# RNA: GGGAGUUCUACAGUCCGACGAUCCAGAAUUUCAUGUGGUCUUGUGUUUGGAAUUUCUGAAUGAUAAUAGUCAGUGGGGCGGAAGUUUCUAACUGCACCAAAGCCAUUGGCUGACCCAUUAGGAUACUGAUUAUAUGACUGGUACAACAGAGGAUUGAGCAUCA
# Target: T1, UNK ZnF1-3
# Assay: nsRBNS (natural sequence RNA bind-n-seq); RBNS binding buffer (assumed for nsRBNS): 25 mM Tris pH 7.5, 150 mM KCl, 3 mM MgCl2, 0.01% Triton X-100, 500 ug/ml BSA, 20 U/ml SUPERase-In, 4 C; UNK is unkempt and MSI1 is Musashi-1; names of the RNAs are library labels; protein concentration not given here; high values mean tight binding
row,Binder,binding signal [enrichment R]
1,B1,0.767
2,B2,1.16
3,B3,2.12
4,B4,2.1
5,B5,0.884
6,B6,2.01
7,B7,0.459
8,B8,1.28
9,B9,1.31
10,B10,1.61
11,B11,0.93
12,B12,0.763
13,B13,1.16
14,B14,0.639
15,B15,0.983
16,B16,2.54
17,B17,0.444
18,B18,1.2
19,B19,0.81
20,B20,1.01
21,B21,1.69
22,B22,1.21
